# According to article PMC6919601, “Identification of Plasmodium dipeptidyl aminopeptidase allosteric inhibitors by high throughput screening” (PLoS ONE, 2019):
# Among all 110,000 compounds or so, about 230 (0.21%) showed an effect of 50% or more. This is one part of the list.
# Molecular target: DPAP1 (Plasmodium falciparum, UniProt Q8IIJ9)
# Test: primary screen, percent inhibition; read by cleavage of a fluorogenic dipeptide substrate; higher = more effect of the substance
# Design: species or system P. falciparum D10 trophozoite lysates; single well
# 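Note: 30 min substrate incubation versus DMSO and 10 µM JCP410 controls.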
# DPAP1, sequence (Q8IIJ9 whole entry, looked up): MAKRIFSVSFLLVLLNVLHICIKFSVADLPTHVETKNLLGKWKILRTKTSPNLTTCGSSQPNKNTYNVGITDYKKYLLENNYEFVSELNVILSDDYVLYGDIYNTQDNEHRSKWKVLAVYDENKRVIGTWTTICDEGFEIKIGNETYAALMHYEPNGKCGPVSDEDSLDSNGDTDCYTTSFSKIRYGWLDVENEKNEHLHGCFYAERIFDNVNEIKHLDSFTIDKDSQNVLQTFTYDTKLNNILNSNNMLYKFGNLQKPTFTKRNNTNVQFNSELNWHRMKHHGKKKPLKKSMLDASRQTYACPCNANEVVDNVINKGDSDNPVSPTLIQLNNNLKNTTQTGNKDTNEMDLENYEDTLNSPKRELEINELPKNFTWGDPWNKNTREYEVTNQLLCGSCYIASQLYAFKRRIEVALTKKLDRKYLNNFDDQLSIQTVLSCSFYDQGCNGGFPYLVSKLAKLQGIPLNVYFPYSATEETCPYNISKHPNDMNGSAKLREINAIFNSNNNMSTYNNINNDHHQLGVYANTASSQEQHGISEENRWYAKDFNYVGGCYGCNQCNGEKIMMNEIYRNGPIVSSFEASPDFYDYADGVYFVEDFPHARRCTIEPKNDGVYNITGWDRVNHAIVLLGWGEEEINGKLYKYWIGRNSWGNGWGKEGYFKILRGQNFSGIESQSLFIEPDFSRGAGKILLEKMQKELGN
row,Compound,% Inhibition @ 10 uM [%]
1,Cc1cc(OC(C)C(=O)Nc2cccnc2Cl)ccc1Cl (centres unmarked),0.161
2,COc1ccc(C(=O)Nc2nc(-c3ccccc3)c(C)s2)c(OC)c1,5.12
3,CC1(C)CC(=O)C2=C(C1)OC1=C(C(=O)CC(C)(C)C1)C2(C)C,5.64
4,Cc1cc(C)nc(N/C(=N\C(=O)C(C)N2C(=O)c3ccccc3C2=O)NCc2ccc(Cl)cc2)n1 (centres unmarked),-1.1
5,Cn1c(=O)c(C#N)cc2c(=O)n3ccccc3nc21,-0.764
6,Cc1nnc(SCc2ccc(Cl)cc2Cl)nc1O,-3.4
7,COc1ccc(-n2ncc3c(N(C)Cc4ccccc4)ncnc32)cc1,2.54
8,Nc1n[nH]c(-c2ccc([N+](=O)[O-])cc2)n1,3.54
9,COc1ccc(OC)c(NC(=O)CS(=O)(=O)Cc2ccccc2)c1,-3.16
10,CCC(C)(C(=O)NC1CCCC1)N(Cc1ccco1)C(=O)CNC(=O)c1ccccc1 (centres unmarked),7.29
11,O=C(NCc1ccc2c(c1)OCO2)c1nc(-c2ccc(Br)o2)no1,-3.75
12,COc1ccccc1Oc1ccc(C#N)c(C#N)c1,-3.16
13,CCCCOc1ccc(S(=O)(=O)N(CC)CC)cc1,2.78
14,CCC(Oc1ccc2c(c1)C(=O)CC(C)(C)O2)C(=O)NCc1ccco1 (centres unmarked),5.23
15,O=C1CCCc2c1[nH]c1ccc([N+](=O)[O-])cc21,2.38
16,COc1ccc(CN2CCN(c3cccc(C(F)(F)F)c3)CC2)c(C)c1C,-3.65
17,Cc1ccc(NC(=N)Nc2nc(O)c3c(n2)CCC3)cc1Cl,-8.36
18,CC(C)CNC(=O)C(=O)NCc1ccccc1,1.29
19,O=C1OC(c2ccc(Br)o2)=N/C1=C\c1ccc(Cl)cc1Cl,-5.99
20,COc1ccc2c(c1)C(=O)N(C)C(=O)/C2=C/Nc1ccccc1,8.92
21,CC1CCN(CC(O)Cn2c3ccccc3c3ccccc32)CC1 (centres unmarked),1.72
22,O=C(CSc1nc2ccsc2c(=O)n1Cc1ccccn1)c1ccccc1,-6.44
23,O=C(CSc1nc(O)c2ccccc2n1)Nc1ccc(F)c(F)c1F,-2.74
24,Cc1nc2cc(S(=O)(=O)N3CCC(C(=O)NCc4cccc(F)c4)CC3)ccc2n1C1CCCC1,-7.28
25,CCN(CC)C(=O)Cn1cc(SCc2cccc(C)c2)c2ccccc21,1.66

row,Compound,% Inhibition @ 10 uM [%]
1,O=C(CN1C(=O)CSc2ncccc21)NCCN1CCCC1,-4.15
2,Cc1cc(/C=C2\NC(=O)N(Cc3ccc(Cl)cc3)C2=O)c(C)n1-c1ccccc1F,2.17
3,COc1ccc(NC(c2ccc(Br)cc2)P(=O)(OC)OC)cc1 (centres unmarked),0.00178
4,Cc1ccccc1OCCn1cc(C(=O)C2CC2)c2ccccc21,1.62
5,O=C(Nc1cccc(-c2nc3ccc(Cl)cc3o2)c1)c1ccccc1F,6.08
6,CCCN(CCC)C(=O)Cn1ncc2c3ccccc3n(Cc3ccccc3C)c2c1=O,4.95
7,Cc1nc2ccccc2c2oc(C(=O)NCc3ccc(F)cc3)cc12,1.62
8,N#CC1(NC(=O)[C@H](Cc2c(F)cccc2F)NC(=O)c2ccc(-c3cc(C(=O)O)ccc3Cl)cc2)CCOCC1,14.7
9,O=C(c1cc(-c2ccccc2O)on1)N1CCCCCC1,2.4
10,COc1cc(/C=C2\SC(=O)N(CC(=O)Nc3ccc(C)cc3)C2=O)ccc1OC(C)C,1.19
11,CCc1nn(C(C)C(=O)N2CCN(Cc3ccccc3)CC2)c(=O)c2cc3occc3n12 (centres unmarked),-0.281
12,Cc1cc(C)nc(NC(=O)NS(=O)(=O)N(Cc2ccccc2)Cc2ccccc2)n1,5.53
13,O=C(c1ccc(Oc2ccccc2)cc1)c1nc2c(n1O)CCCC2,1.74
14,COc1ccc(S(=O)(=O)Nc2ccc(S(=O)(=O)Nc3ccc(F)cc3)cc2)cc1C,-2.09
15,Cc1cc(NS(=O)(=O)c2ccc(NC(=O)COc3ccc4ccccc4c3)cc2)no1,0.658
16,CC(C)c1ccc2oc(-c3cccc(N)c3)nc2c1,-8.67
17,CCOC(=O)c1sc(NC(=O)COc2ccc3c(C)cc(=O)oc3c2)c(C(=O)OCC)c1C,0.736
18,O=C(C1CC(=O)N(C2CCCC2)C1)N1CCC2(CC1)OCCO2 (centres unmarked),-1.21
19,O=C(Nc1ccccc1Br)C1CC(=O)N(c2ccc3c4c(cccc24)CC3)C1 (centres unmarked),-2.98
20,Cc1ccccc1NC(=O)CN(c1cc(Cl)ccc1C)S(C)(=O)=O,-6.77
21,O=C1C=CC(=NS(=O)(=O)c2ccc(C(=O)O)cc2)C=C1,3.35
22,CCc1ccc(S(=O)(=O)Nc2cc(Cl)ccc2Cl)cc1,22.5
23,O=C(NCc1ccccc1)c1cncc(Br)c1,0.843
24,CC(=O)c1cc(-c2ccc(F)cc2)n(CCC(=O)Nc2cccnc2)c1C,1.47
25,CCN(CC)S(=O)(=O)c1ccc(NC(=O)c2ccc(Cl)cc2Cl)cc1,-2.3
